The supplement of paper PMC9151546
Most values come without repeats; read them as rough.

Experiments:
[1] = tested on: CHO-K1; assay: micronucleus frequency (% of nucleated events); higher = more micronuclei (genotoxic)
[2] = tested on: CHO-K1; assay: hypodiploid nuclei frequency (% of nucleated events); higher = more hypodiploid events (aneugenic)
Description: (§1)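 Flow-cytometric in vitro micronucleus assay (Litron MicroFlow) in CHO-K1 cells in 96-well plates, 19 concentrations (4.5-200 µM, n=1 per concentration). Without S9, cells were exposed for 24 h and sampled at 48 h. With Aroclor 1254-induced rat liver S9, cells were exposed for 3-4 h and sampled at 27-28 h. Read-outs are %MN and %hypodiploid nuclei relative to nucleated events, and relative survival as the nuclei-to-bead ratio versus the 1% DMSO vehicle control (x100).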

[3] = tested on: CHO-K1; assay: relative survival (nuclei to bead ratio vs DMSO control) (% of vehicle control); higher = more surviving cells
Description: as §1
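Throughout, for hypodiploid nuclei frequency (% of nucleated events): hypodiploid nuclei gated on a flow cytometer with 488 nm excitation after SYTOX Green staining, cultures at 37 °C, positive controls vinblastine without S9 and cyclophosphamide with S9.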
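Throughout, for micronucleus frequency (% of nucleated events): cells lysed with nuclei stained by SYTOX Green, then micronucleus-gated events counted against nucleated events by flow cytometry with 488 nm excitation.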
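Throughout, for relative survival (nuclei to bead ratio vs DMSO control): Lysed-cell nuclei stained with SYTOX Green and counted against counting beads by flow cytometry at 488 nm excitation, with vinblastine (no S9) and cyclophosphamide (plus S9) as positive controls.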

CCN(Cc1cccc(S(=O)(=O)O)c1)c1ccc(C(=C2C=CC(=[N+](CC)Cc3cccc(S(=O)(=O)O)c3)C=C2)c2ccccc2S(=O)(=O)[O-])cc1 [FD&C Blue No. 1]
Settings | hypodiploid nuclei frequency, [2] [%] | micronucleus frequency, [1] [%] | relative survival, [3]
concentration: 2.9 (µM), S9 metabolic activation: with S9, exposure time: 3-4 hours | 0.24 | 0.88 | 86.7
concentration: 2.9 (µM), S9 metabolic activation: without S9, exposure time: 24 hours | 0.46 | 1.46 | 96.5
concentration: 3.63 (µM), S9 metabolic activation: with S9, exposure time: 3-4 hours | 0.22 | 0.65 | 71.4
concentration: 3.63 (µM), S9 metabolic activation: without S9, exposure time: 24 hours | 0.54 | 1.52 | 93.4
concentration: 4.54 (µM), S9 metabolic activation: with S9, exposure time: 3-4 hours | 0.14 | 0.8 | 73.5
concentration: 4.54 (µM), S9 metabolic activation: without S9, exposure time: 24 hours | 0.44 | 1.68 | 92.4
concentration: 5.67 (µM), S9 metabolic activation: with S9, exposure time: 3-4 hours | 0.24 | 0.83 | 73.3
concentration: 5.67 (µM), S9 metabolic activation: without S9, exposure time: 24 hours | 0.44 | 1.72 | 107
concentration: 7.1 (µM), S9 metabolic activation: with S9, exposure time: 3-4 hours | 0.13 | 0.78 | 69.5
concentration: 7.1 (µM), S9 metabolic activation: without S9, exposure time: 24 hours | 0.74 | 0.88 | 97.6
concentration: 8.9 (µM), S9 metabolic activation: with S9, exposure time: 3-4 hours | 0.24 | 0.86 | 61.9
concentration: 8.9 (µM), S9 metabolic activation: without S9, exposure time: 24 hours | 0.36 | 1.26 | 113
concentration: 11.1 (µM), S9 metabolic activation: with S9, exposure time: 3-4 hours | 0.24 | 0.52 | 80.7
concentration: 11.1 (µM), S9 metabolic activation: without S9, exposure time: 24 hours | 0.6 | 1.22 | 150
concentration: 13.9 (µM), S9 metabolic activation: with S9, exposure time: 3-4 hours | 0.24 | 0.92 | 78.8
concentration: 13.9 (µM), S9 metabolic activation: without S9, exposure time: 24 hours | 0.78 | 1.14 | 115
concentration: 17.3 (µM), S9 metabolic activation: with S9, exposure time: 3-4 hours | 0.1 | 0.7 | 90.4
concentration: 17.3 (µM), S9 metabolic activation: without S9, exposure time: 24 hours | 0.54 | 1.4 | 113
concentration: 21.6 (µM), S9 metabolic activation: with S9, exposure time: 3-4 hours | 0.12 | 0.84 | 65.3
concentration: 21.6 (µM), S9 metabolic activation: without S9, exposure time: 24 hours | 0.56 | 1.22 | 111
concentration: 27.1 (µM), S9 metabolic activation: with S9, exposure time: 3-4 hours | 0.18 | 0.66 | 76.7
concentration: 27.1 (µM), S9 metabolic activation: without S9, exposure time: 24 hours | 0.5 | 1.04 | 92.7
concentration: 33.8 (µM), S9 metabolic activation: with S9, exposure time: 3-4 hours | 0.16 | 0.66 | 92.5
concentration: 33.8 (µM), S9 metabolic activation: without S9, exposure time: 24 hours | 0.3 | 1.1 | 116
concentration: 42.3 (µM), S9 metabolic activation: with S9, exposure time: 3-4 hours | 0.28 | 0.86 | 104
concentration: 42.3 (µM), S9 metabolic activation: without S9, exposure time: 24 hours | 0.56 | 0.72 | 109
concentration: 52.8 (µM), S9 metabolic activation: with S9, exposure time: 3-4 hours | 0.22 | 0.82 | 72.5
concentration: 52.8 (µM), S9 metabolic activation: without S9, exposure time: 24 hours | 0.48 | 0.76 | 88.6
concentration: 66 (µM), S9 metabolic activation: with S9, exposure time: 3-4 hours | 0.16 | 0.8 | 91.1
concentration: 66 (µM), S9 metabolic activation: without S9, exposure time: 24 hours | – | – | 31.2
concentration: 83 (µM), S9 metabolic activation: with S9, exposure time: 3-4 hours | 0.14 | 0.78 | 87.1
concentration: 83 (µM), S9 metabolic activation: without S9, exposure time: 24 hours | – | – | 3.09
concentration: 103 (µM), S9 metabolic activation: with S9, exposure time: 3-4 hours | 0.18 | 0.86 | 78.6
concentration: 129 (µM), S9 metabolic activation: with S9, exposure time: 3-4 hours | 0.14 | 0.54 | 78.2
